In PubChem BioAssay (NCI):
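Cells were grown in 96-well plates and exposed to each compound for 48 hours at five concentrations; endpoints were interpolated linearly between bracketing concentrations, or set to the highest concentration if not reached. GI50 is the concentration that inhibits growth by half. TGI is the concentration that stops growth completely.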

tested on: NCI-H322M lung; experiment: NCI-60 cell line screen, 48 h

| Structure (SMILES) | GI50 | TGI |
| --- | --- | --- |
| Fc1ccc(-c2nc(C(Cl)Cl)nc3cc(-c4ccccc4)nn23)cc1 | 3.26 µM | 36 µM |
| C#CCN(C)CCCOc1ccc(NC(=O)CCCCCCC(=O)NO)cc1Cl | 1.89 µM | 30.2 µM |
| CC(=O)OC[C@H]1OC(O)C=C[C@@H]1OC(C)=O (some centres not stated) | 136 µM | 456 µM |
| Cc1ccc2c(n1)C(=O)C(Cl)=C(Nc1cccc(C)c1C)C2=O | 2.13 µM | 6.17 µM |
| Cc1ccc(C(=O)Nc2ccc(CNCCN3CCOCC3)c(C(F)(F)F)c2)cc1C#Cc1cnc2cccnn12 | 3.42 µM | 12 µM |
| CS(=O)(=O)Nc1cc(-c2ccc3ncc(C#N)c(Nc4cccc(Cl)c4F)c3c2)cnc1Cl | 0.65 µM | 3.19 µM |
